Self-cleavage data for 167 variants are collected here from the RNAGym collection of RNA variant scans (doi:10.7554/elife.90254).

The source gives no read counts; variants with many changes may rest on few reads.

To fix the notation:
B1: LINE1-full (parent)
chain: UACGUAGGUGGUUUUCCCCUGAUAGUGCUAAGGGGGCCUGGAAGUUUGGACUGGGCAGAGCUCAACACAGCGUGGCAAAGUGGCUGUGGCUAGACUGCCUCUCUGGAUUCCUCGUCACUCAGCAGGGCAUCUCUGAGAGAAAUGCC

The series covers variants of B1. As to the kind of experiment: self-cleavage, relative activity (ratio to wild type); higher = more cleavage; in vitro, sequencing; the parent is a self-cleaving ribozyme.
Turning to U20A A42G U46C, the self-cleavage came to 1.53.
As for U20C U23C A30G A138G, the figure is 1.72.
The same measure for C18U C76A U115C: 2.09; for U20C A31G A43U A129U: 1.56; for U20C A59G A117G: 0.
As for C19U U85A A138G, the figure is 0.16.
Regarding C18A A78G C99U C145G, the self-cleavage stood at 0.45.
The same measure for U20C U23A A43G A50G G135A: 2.3.
C19U A50G U132C U143C: the self-cleavage stood at 0.84.
As to U20C A50U U115C A142G, the self-cleavage stood at 1.36.
On to U20C A31U U52A A69U U119C U130A, for which the self-cleavage stood at 0.19.
As for C19U U119A U134C, the figure is 1.32; as for U20C G74U A78G, 1.86; as for U20C A77G A78G U112A, 1.71.
Regarding C18U U108C U130C, the self-cleavage came to 1.29.
The same measure for U20C A57U A107G: 0.24.
As for C18U U20C U134C, the figure is 1.74; as for U20A G75U U81A, 0.6; as for U20C U26A A77C U96A U143A, 0.08.
As to U20A U112A G135A, the self-cleavage was found to be 1.47.
The same measure for U20C A42G G127A: 1.77; for U20C U45A A142G: 1.49; for U20C A43G A65U C98A U100C U102C U119C A141G: 0.
As for C17U A30G U47C U115A A138G, the self-cleavage was 1.28.
The same measure for U20A A67G C76U U109C A129U: 0.31.
The same measure for U20A G32A U46A G54A U96C A129G A140G: 0.01; for U20A G72A U87A A124U: 0.08; for U20A U39A U85A: 0.1.
As for C18U A43G U143C, the figure is 0.22; as for U20C G35A U115C G122A, 1.69; as for U20C A77C A129G, 0.
For the variant U20A A77G A117G, the self-cleavage stood at 0.68.
As for U20C U29C C95A A129U, the figure is 0.08; as for U20C A30G U73C, 1.84; as for C19U U20C U45A U132C, 0.8.
The same measure for U20A U29C A64U A124U: 0.58.
The same measure for C19G U20G A59G G86A A141U: 0.21.
In the case of U20C A78U U81A, the self-cleavage was 1.5.
The same measure for C17U U20C U26G G93C A94G: 0; for U20C A69G G82A: 1.01.
The same measure for C19U G25A A69U C98U: 0.09; for U20A U45G G60A G135U: 0.1.
The same measure for U20C U45C A57G: 0.5.
For the variant C19A U108C U143C, the self-cleavage was found to be 2.53.
As for U20C A64U A92U, the figure is 0.31; as for U20A U102C U143C, 1.65; as for C18A U26A U62G G72A C113A, 0.07.
With U20C G32A A92G U132A, the self-cleavage came to 0.04.
Take C18U C28U U104G G125A: the self-cleavage came out at 1.87.
For the variant C19U A43G C51U A65G C116A, the self-cleavage came out at 0.08.
The same measure for C18A A31G U91C A117G U132C: 0.
As for U20A U62C G86A A124U, the figure is 0.05.
The same measure for U20C A22U U81C: 1.95; for C17U A24G U91C A136G: 1.15.
Regarding U20C U26A A65G A124U, the self-cleavage came to 0.
As for U20C A42G U91A, the figure is 0.61; as for U20C G127A A138C A142G, 0.84; as for C18A A43G A57C A136G, 0.
For the variant U20C G40A U108C, the self-cleavage stood at 1.12.
As for C19U A43G A94G A140G, the figure is 0.
Consider C17U A94G U115A, for which the self-cleavage is 0.4.
As for U20A U104A U132A, the self-cleavage amounted to 1.02.
Regarding U20C U26A U109A, the self-cleavage came out at 0.55.
In the case of U20C A77G G114A U119C, the self-cleavage stood at 2.96.
The same measure for U20A G36C A65U: 0.14.
As for U20C A65G C71U, the figure is 0.03.
As for U20C C61U G88U U130A, the self-cleavage is 0.05.
The same measure for C19U A57G G74A: 0.81; for U20C G34U U130C: 1.43; for U20A U23C U45C A50G: 0.92.
For C17U G35U A77G A129G U130A, the self-cleavage came out at 0.
The same measure for C19U U47C G49U: 1.53; for U20A G34U G82A: 1.98.
Turning to C19U C84U U104G A138C, the self-cleavage came out at 0.3.
In the case of U20A U23C G75A, the self-cleavage turned out to be 0.71.
The same measure for C19U U26A A77U: 0.73; for U20A C28U A31U U130C: 2.87; for C17U A78G G139A: 1.07.
As for U20C G40U A50U U134A A140G, the figure is 0.22; as for U20A U62C A65G A94U A117G, 0; as for U20C A42G C56U, 0.25.
On to U20C A42G A77G G93A U96A A124U, for which the self-cleavage worked out at 0.06.
The same measure for C19A C38U U130C: 0.64; for C18A U73A U143A: 0.66; for U20C A77U G125U A136G: 1.42.
As for U20C U26C U132A, the self-cleavage was found to be 1.75.
Turning to C19U U29C A59G A138U, the self-cleavage came to 0.
As for C17U U81A A141G, the self-cleavage was determined as 1.47.
For the variant U20C A79G U112C, the self-cleavage was 0.63.
The same measure for C19U C51A A57C U143C: 0.09.
As to C17U A22G G137A A138G, the self-cleavage came out at 0.92.
As for U20A U85C U132C, the figure is 0; as for C17U A22G U45A U108C, 0.67; as for C19U U46C U52C A94G, 0.
For U20C A129G U132C, the self-cleavage came out at 0.75.
The same measure for C17U U23C A31C A140G: 1.09; for U20A A94U U134C: 0.35; for U20A U81A U85A A92G A121G: 0.32.
Consider C17G A117G A124G, for which the self-cleavage came out at 1.39.
As for C19U U26C A124U, the figure is 0.82; as for U20A U46A A57U, 0.14; as for C18A U20C U115A, 0.98.
As for U20A U45A U100C A140G, the figure is 1.5; as for U20A A67U A77G U96A U102C A124G, 0; as for U20A C38U A65G, 0.02.
For U20C A22U G27U U73A U91C, the self-cleavage came to 0.
As for C17U U46C C95U A121G, the figure is 0.4.
Regarding C17U U26A A57G, the self-cleavage was found to be 0.53.
The same measure for C19U U85C U104A: 0.15; for U20C A42G A79G: 2.04; for U20A A77U U134C: 0.92.
In the case of C17U A64G U73C, the self-cleavage worked out at 0.3.
The same measure for U20A C56A U132C: 0.03.
The same measure for U20C U39C A43G: 1.59; for U20A A117U A141G: 0.71; for U20C U26C A94G A142G: 0.59.
The same measure for C19U U39G U62A U85A: 0.09; for U20A A64G U102C: 0.34; for C18G U20C A77G G127A: 1.94.
With U20C A69C U132C, the self-cleavage came out at 0.
The same measure for U20A A50G U108C: 2.42; for U20A U45C A94U A117U A136U A138G: 0.42.
As for U20A A43U A69G U81A G88A, the figure is 0.04.
As for U20A A42G U143C, the figure is 1.99.
Regarding U20A C37U G89U A92G, the self-cleavage is 0.03.
The same measure for U20A A64U U134G: 0.41.
U20A U104C A117U U132C U134A A140G: the self-cleavage was 0.
The same measure for U20C A79G A94G: 0; for U20C G33U A42G G72U G106A U143C: 1.33; for U20A A31U A69G A79G U100A: 0.
As for U20C A117C U143C, the figure is 1.02.
The same measure for C18A C71U A78G: 0.32.
In the case of U20C A64C A79U, the self-cleavage worked out at 0.49.
The same measure for U20C A107G U119C A124U A136U: 0.84; for U20C A65G A77G A138G: 0; for C19U U26A U119C C131U: 1.13.
As for U20A A31U C118G, the figure is 1.03; as for C18U U47C U132A, 0.84; as for U20A G74U A77C, 1.66.
Consider U20A A64C U132C, for which the self-cleavage was 0.25.
As for C19U U45C U100A, the figure is 0.34; as for C19U U62C A141U, 0.06.
U20A U39A A42G: the self-cleavage worked out at 0.56.
U20C A65G A142G: the self-cleavage was found to be 0.08.
The same measure for U20C A31U U62C A78C: 0.21.
As for U20C C56U U85A U87A, the figure is 0.03; as for U20C A141G C146U, 1.73; as for U20C U26C A65U C118U, 0.5.
As for U20A C113U G122U, the figure is 1.1.
U20C U23C G27A A69U: the self-cleavage came to 0.05.
The same measure for U20C C101A U115A: 1.29; for U20A G36C U62C: 0.09; for U20C A22U U81G U108C: 1.78.
The same measure for U20A G36A U52G C128U: 1.24; for U20C A64U A92G U132C: 0.15.
As for U20C U23C U119A, the figure is 0.8.
Regarding C19A C66U A121G, the self-cleavage was 0.03.
As for C19U U45A U52A A69C U108A, the figure is 0.06.
The same measure for U20A U115A A129G: 1.45; for U20A A78U U85A: 0.13; for C19A C103A U130A: 2.48.
The same measure for C19A U52A U130C: 1.61; for C17U U62C A64C: 0.12.
Turning to U20A A65G C98G, the self-cleavage turned out to be 0.14.
As for U20C A42U A94C A140G, the figure is 0.
As for U20A U26C U62C, the figure is 0.14.
The same measure for U20C C90G U100C: 0.11.
